Data: the supplement of paper PMC11417369
The list shows a part of the results.

tested on: PF3D7_0420300 AP2 domain 1 (GST-tagged); test: gcPBM binding intensity (ln(normalized median fluorescence intensity)); higher = stronger DNA binding
Procedure, shortened: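 Alexa488 anti-GST antibody, scanned at 488 nm, detected GST-tagged P. falciparum DNA-binding domains that had been expressed in E. coli and incubated for 1 h on an Agilent 4 × 180k array. The array carried primer-extended double-stranded 36-bp intergenic genomic probes and negative controls. Binding intensity is the highest Masliner-normalised natural-log median intensity across replicate spots of either orientation of each probe.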

Row | Sequence | gcPBM binding intensity (ln)
1 | TATATATATATATATTGTACATTTACCAAATTGTGT [XGTACX_site5791] | 9.27
2 | ATATAATATATATATTGTACATATATTTATAAGCAT [XGTACX_site3726] | 9.2
3 | TTTTTTTTTTTTTGCACACTTAAATTTGGAGTGTAG [CACACA_site2345] | 9.06
4 | TATATAAATAAATATACACACATATATAAATATACA [CACACA_site2982] | 9.62
5 | TTTAATAATAATACTAGTACACATTCTTTATTATTT [XGTACX_site2671] | 9.37
6 | TTTTTTTTTTTCGGGGGTACTAATATATTATTAATA [XGTACX_site7809] | 9.79
7 | GTTTTTAAGAAAAACACACACTCCTGTTATTTTATA [CACACA_site3696] | 9.44
8 | AACAAAATTGAAGGAACACACATACAGATATATATA [CACACA_site4264] | 9.81
9 | TAATAATTAATTAATATAATATTTTTTCATAATTAT [XGTACX_negctrl_site602] | 8.93
10 | ATAGAAAAAATATACACACACTTATTAAATAAAAAT [CACACA_site7540] | 9.91
11 | TAAAAAGTATATAAGAGTACACATATTTATAAATAT [XGTACX_site3084] | 9.37
12 | AGACTTTGTACAAACACACACATGAGCACAATATTA [CACACA_site6755] | 9.74
13 | TATATATCAATATGCACACACAAGAAGTAATTATAA [CACACA_site7487] | 9.72
14 | AACAAATTTTTTTTTCCTTTTTTTTTTTTACTTCAT [CACACA_negctrl_site1214] | 9.28
15 | ATAAACAAAGTTAAATGTACAAAGGGGTAAAAAAAA [XGTACX_site83] | 9.44
16 | ACACAATTGAAATAGTGTACAAAATGTTGTTACATA [XGTACX_site8671] | 9.21
17 | TTTTTTTTTCGGAAAAGTACAAAACTTTTTTATAAT [XGTACX_site4670] | 8.72
18 | TTATTAACCAAACGCACATGCAAAATATATTATATA [TGCATGCA_site915] | 9.19
19 | AAATAAATAATATGTAAACACACAAAAAATAAAAAT [CACACA_site8307] | 9.72
20 | TATAATGTTAAATAATGTACATATTTTTTTTTTTTT [XGTACX_site4721] | 9.09
21 | AAAGCTAATATTATATGTACTTATATATTTATATAT [XGTACX_site4474] | 9.16
22 | ATATAAATCTACACCGCACACAAAAACAACAAATAT [CACACA_site2506] | 9.86

Row | Sequence | gcPBM binding intensity (ln)
23 | CATGTGCATATTAAATGTACATATATACATATATAC [XGTACX_site857] | 9.19
24 | ATATAGGTATTTAATACACACAAAACTTTCATTCCA [CACACA_site7627] | 9.55
25 | ATATAAATATATTGCACACACAATTATTATTATTAT [CACACA_site7147] | 9.59
26 | AAGGATGATACAACTTGTACATATTTGCTTAATATA [XGTACX_site764] | 9.17
27 | AATATATTTTTTCACTGTACTTTTATTATATATACA [XGTACX_site8312] | 9.54
28 | AAAAAAAATGGATGATCACACACTTCATAAAAATTG [CACACA_site2213] | 9.42
29 | ATAATTTTTTGATTTGCATGTAATAAATATATGATA [TGCATGCA_site384] | 9.11
30 | ATACAACGATATATATATATACAAATACATATTTAT [CACACA_negctrl_site268] | 9.42
31 | GATTTTTTTTTGTGGACACACAGAAATAAATTTATA [CACACA_site327] | 9.09
32 | CACATACAGATATATACACACAAATATATATACTCA [CACACA_site4591] | 9.76
33 | AGGATACACAGACACACACACATATATATATATATA [CACACA_site907] | 9.82
34 | TAAATAGATGTTTTATGTACGTATAAATAAAAAAAA [XGTACX_site3412] | 9.15
35 | TTTTTTTAAAGACATGCATGTAATATTTAAATCATT [TGCATGCA_site495] | 8.98
36 | ATTAAAAATATAGTCACACATACACCCATATATATT [CACACA_site5394] | 9.58
37 | GTATATATGTATGTATGTACGTATATAGTTATGTAT [XGTACX_site6769] | 9.34
38 | ATAAAAAAATTAAATACATGCACATATACACATACA [TGCATGCA_site129] | 9.59
39 | TACTGAAATAATTATTTAAACGTTTTTATATGTATT [CACACA_negctrl_site487] | 9.34
40 | TTTATTTTTTCCAAGTCACACATGTTTTGATATATT [CACACA_site4946] | 9.31
41 | ACAACTCGGAAGGTTTGTACTTAAAGTATAATTAAG [XGTACX_site737] | 8.99
42 | TTTGTAAAACTATATTGTACTTTTATATATCTACAA [XGTACX_site5507] | 9.15
43 | AATTGGAAGAAAAAAAAGGAAGGAAAGTTATTACAT [GTGCAC_negctrl_site74] | 9.38
44 | TATATACATGCATATACACACATATATTTATTTATA [CACACA_site6327] | 9.55
